# Legend:
# [1] = target: T1, pancreatic lysate lipase (Mus musculus, UniProt Q6P8U6); assay: Lipase activity assay with pancreatic lysate (commercial Pointe scientific lipase assay); format: biochemical; conditions: solution stored overnight at room temperature
# T1 construct: efficacy against mouse pancreatic lysates; other: summary of strengths of 767; efficacy as a solution when left overnight; other: solution left overnight; efficacy in the lipase activity assay compared with orlistat when fresh; other: fresh solution; IC50 of orlistat after overnight incubation (nearest tested concentration); other: after overnight incubation; improvement in stability and e
# T1 sequence (Q6P8U6 17-465): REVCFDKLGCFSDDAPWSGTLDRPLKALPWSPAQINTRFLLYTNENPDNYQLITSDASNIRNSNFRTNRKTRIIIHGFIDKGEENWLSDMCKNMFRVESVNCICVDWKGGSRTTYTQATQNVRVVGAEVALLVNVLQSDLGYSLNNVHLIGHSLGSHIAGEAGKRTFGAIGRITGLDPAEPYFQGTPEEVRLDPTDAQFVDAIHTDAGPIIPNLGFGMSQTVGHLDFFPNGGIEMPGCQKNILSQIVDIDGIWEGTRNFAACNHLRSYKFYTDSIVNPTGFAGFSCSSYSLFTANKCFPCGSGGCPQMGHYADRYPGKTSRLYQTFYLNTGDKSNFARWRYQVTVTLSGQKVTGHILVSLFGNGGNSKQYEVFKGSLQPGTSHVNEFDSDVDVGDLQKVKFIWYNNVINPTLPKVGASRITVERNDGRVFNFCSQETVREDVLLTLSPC
# Procedure: (§1) To test the efficacy of these compounds, the agents were dissolved as a 20 mM stock in ethanol, and further diluted to in PBS as a 600 micromolar working stock (3.3% ethanol). This was either used immediately or left at room temperature for 16-20 hours overnight before retesting efficacy. The agents were incubated with a pancreatic lysate in serial ⅓ dilutions spanning a range of 200 to 0.3 micromolars for 30 minutes. 5 microliters of these mixtures were then used to measure lipase activity using a commercial lipase assay (Pointe scientific) containing a monoacyl glycerol lipase in the reagent. The lipase assay was done using reagents in proportion to the recommended protocol. Values were depicted as % maximal lipase activity of the well without any inhibitor.
# [2] = tested on: acinar cells in acinar-adipocyte co-culture; conditions: 66 micromolars
# [3] = tested on: pancreatic lysate lipase; assay: Lipase activity assay with pancreatic lysate (commercial Pointe scientific lipase assay); format: biochemical, mouse; conditions: freshly prepared solutions; compared with parent 741
# Procedure: as §1
improvement in stability and efficacy over orlistat after overnight storage [1],lipase inhibition efficacy of β-chain analogs of 741 [3],SMILES,toxicity to acinar cells [2],efficacy in reducing lipotoxic damage to acinar cells ([2]; acinar-adipocyte co-culture)
approximately 10 fold,–,CCCCCCCCCCC[C@@H](C[C@@H]1OC(=O)[C@H]1CCCCCC)OC(=O)[C@H](CC(=O)O)NC=O [Compound 743],toxic to acinar cells,–
–,–,CCCCCCCCCCC[C@@H](C[C@@H]1OC(=O)[C@H]1CCCCCC)OC(=O)[C@H](COC=O)NC=O [Compound 736],low toxicities,retained its efficacy
–,decrease in efficacy,CC=CCCC(CC1OC(=O)[C@H]1CCCCCC)OC(=O)[C@H](C)NC=O (some centres unmarked) [Compound 760],–,–
